Among all 46,000 compounds or so, about 60 (0.1%) were called active. Inconclusive results (about 3%) are left out. The call rests on the fitted dose curve; in most records, active means well fitted inhibition curve with a large enough effect; inconclusive means small, poorly fitted or top-dose-only effect; inactive means no such curve, though single readings can be large or run the other way. Some of the results follow.

The nature of this assay: Primary qHTS assay for Inhibitors of ovarian cancer metastasis using an organotypic tumor microenvironment (TME) model. Further: nearly all actives have a fitted effect of over 65% in size.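 On activity change, negative = inhibition: plate controls were DMSO wells for no effect and tomatine positive control wells for full effect.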 The settings on record: SKOV3ip1-GFP adhesion/invasion on 3D omental model, fluorescence; series mostly up to 45.8 µM; activity change, negative = inhibition: at the top concentration. The gist of the method:
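Primary human omental fibroblast/mesothelial 3D culture pre-formed 48 h. SKOV3ip1-GFP cells added with compounds (0.36-46 umol/L), incubated 2 h RT/16 h 37 C, fixed; GFP cells quantified at 488/509 nm.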
In the case of `CCCn1c2ccccc2c2cnn(CC(=O)NCCCN3CCCCC3CC)c(=O)c21` (configuration not stated), the “activity change, negative = inhibition” value is inactive: -10.5%.

Take `O=C(Cn1nc(C(F)(F)F)c2c1CCCC2)Nc1cccc(Cl)c1`: the “activity change, negative = inhibition” value was inactive: -9.8%.

On to `CCC(C)NC(=O)c1cc(Sc2cccc(Cl)c2)nc2ccccc12` (configuration not stated), for which the “activity change, negative = inhibition” value was inactive: 3.4%.

Consider `FC(F)(F)c1cccc(N2CCN(c3ncnc4c3nc3n4CCCC3)CC2)c1`, for which the “activity change, negative = inhibition” value was inactive: 2.64%.

As for `Cc1ccccc1NC(=O)Cn1cc(S(=O)(=O)c2ccccc2)c(=O)c2ccccc21`, the call was inactive.

With `NC1=N[C@H]2[C@H](CS[C@H]2CCCCC(=O)O)N1`, the “activity change, negative = inhibition” value is inactive: 9.47% [at 23.2 µM].

`COc1ccc(NC(=O)c2cc3c(-c4ccccc4F)nn(C)c3s2)c(OC)c1`: the “activity change, negative = inhibition” value was inactive: -3.71%.

As for `CCOc1ccc(Nc2cc(C)nc3nncn23)cc1`, the “activity change, negative = inhibition” value is inactive: -2.85%.

As to `NC(=O)Cn1c(=O)n(CCCCCC(=O)NCc2ccc3c(c2)OCO3)c(=O)c2sccc21`, the compound was classed as inactive.

Take `COc1cccc(C(=O)CC2(O)C(=O)N(Cc3ccccc3)c3ccccc32)c1` (configuration not stated): the “activity change, negative = inhibition” value is inactive: -19.5%.

For the compound `COc1cc(CNC(=O)c2ccc3nc(Cc4ccccc4)oc3c2)cc(OC)c1OC`, the “activity change, negative = inhibition” value was inactive: 2.26%.

For the compound `CC(CNC(=O)c1ccc(Cn2c(=O)c3cccn3c3cccnc32)cc1)c1ccccc1` (configuration not stated), the “activity change, negative = inhibition” value is inactive: -4.27%.

In the case of `COc1ccc(-c2c(C)c3cc(OC(=O)N4CCOCC4)ccc3oc2=O)cc1OC`, the “activity change, negative = inhibition” value was inactive: 3.58%.

Turning to `COc1ccc2c(c1)c1c(c(=O)n(-c3ccc(OC)c(OC)c3)c(=O)n1Cc1ccc(F)cc1)n2C`, the result was inactive.

For the compound `Cc1cn2c(=O)cc(COC(=O)c3ccc(NC(=O)c4ccccc4C)cc3)nc2s1`, the “activity change, negative = inhibition” value was inactive: 3.22%.

For `CCOC(=O)C1CCCN(c2c(C(=O)c3ccccc3)cnc3ccc(F)cc23)C1` (configuration not stated), the compound was called inactive.

Regarding `Cc1ccccc1CS(=O)(=O)Cc1ccc(C(=O)NCCc2ccc(Cl)cc2)o1`, the “activity change, negative = inhibition” value was inactive: 0.977%.

In the case of `Cc1ccccc1C(=O)Nc1sc2c(c1C(=O)N1CCC(C)CC1)CCC(C)C2` (configuration not stated), the “activity change, negative = inhibition” value was inactive: 0.898%.

As to `COc1ccc(NC(=O)c2nnn(CC(=O)Nc3ccc(C)c(C)c3)c2N)cc1OC`, the “activity change, negative = inhibition” value was inactive: -13.9%.

Turning to `CCOc1cc2[nH]c(=O)n(CCCCC(=O)N3CCN(c4ccccc4OC)CC3)c(=O)c2cc1OCC`, the “activity change, negative = inhibition” value was inactive: 13.2%.

In the case of `COc1cccc(Cn2nnc(C(=O)NCc3ccc(Cl)cc3Cl)c2N)c1`, the compound was classed as inactive.

For the compound `CCc1cccc(NC(=O)Cn2c(=O)n3nc(-c4cccc(F)c4)nc3c3ccccc32)c1`, the “activity change, negative = inhibition” value was inactive: 2.11%.

On to `Cc1cn(C)c(CC(=O)Nc2cccc(C#N)c2)c1C(=O)O`, for which the “activity change, negative = inhibition” value was inactive: -9.59%.

With `Cc1ccc(CSc2ncc(Cl)c(C(=O)Oc3ccccc3F)n2)cc1`, the “activity change, negative = inhibition” value is inactive: 16.6%.

With `Cc1ccc(Cn2c(=O)n(-c3cccc(C(F)(F)F)c3)c(=O)c3c(C)c(C)sc32)c(C)c1`, the “activity change, negative = inhibition” value is inactive: 3.7%.

`Fc1cc(-c2cccc3ncc(-c4cnn(C5CCNCC5)c4)nc23)cc(F)c1CN1CCOCC1`: the “activity change, negative = inhibition” value was inactive: -4.29%.

For `COc1ccc(-c2cc3nc(C)c(CCC(=O)NCCc4ccc(Cl)cc4)c(C)n3n2)c(OC)c1`, the compound was classed as inactive.

`O=C(CN1C(=O)COc2ccc(S(=O)(=O)N3CCCCCC3)cc21)N1CCN(c2ccc(F)cc2)CC1`: the call was inactive.

Regarding `Cc1ccc(Cn2c(=O)c3cccnc3n(Cc3ccc(C)cc3)c2=O)cc1`, the “activity change, negative = inhibition” value was inactive: -0.432%.

As for `CCOC(=O)N1CCC(NC(=O)c2cnn(-c3ccc(OC)cc3)c2C2CCN(C(=O)OC(C)(C)C)CC2)CC1`, the “activity change, negative = inhibition” value was inactive: 21.8%.

Consider `Cc1ccccc1NC(=O)COc1ccc2oc3c(c2c1)CCCC3`, for which the “activity change, negative = inhibition” value was inactive: -2.27%.

As to `COc1ccc(OC)c(C2CC(=O)c3c([nH]c(C(=O)OCc4ccc(C)cc4)c3C)C2)c1` (configuration not stated), the compound was classed as inactive.

`Cc1ccc(CCNC(=O)c2cnc3c(-c4ccc(F)cc4)c(C)nn3c2C)cc1`: the “activity change, negative = inhibition” value was inactive: 20.4%.

In the case of `Clc1ccc(-c2noc3ncnc(NC4CCCCC4)c23)cc1`, the call was inactive.

Regarding `Cc1ccc(-c2nn3c(=O)cc(CN4CCN(C(=O)Nc5cccc(C(F)(F)F)c5)CC4)nc3s2)cc1`, the “activity change, negative = inhibition” value is inactive: 5.26%.

Consider `Cc1ccccc1OCCn1cc(C(=O)c2ccco2)c2ccccc21`, for which the “activity change, negative = inhibition” value was inactive: 3.49%.

In the case of `CCc1nn(CC(=O)NCc2ccc(C)cc2)c(=O)c2cc3occc3n12`, the result was inactive.

In the case of `CCOc1ccc(C(=O)/C=C/c2cn(CC(O)CN3CCc4ccccc43)c3ccccc23)cc1` (configuration not stated), the “activity change, negative = inhibition” value was inactive: -11.1%.

On to `COc1cc(OC)c(OC)cc1CN1CCc2nc(N3CCN(C)CC3)ncc2C1`, for which the “activity change, negative = inhibition” value was inactive: 15.9%.

Consider `Cc1cc(C)cc(N2C(=O)N(Cc3cc(=O)n4ccccc4n3)c3ccccc3S2(=O)=O)c1`, for which the “activity change, negative = inhibition” value is inactive: 8.26%.

Regarding `O=C(CCn1c(=O)c2ccccc2n(Cc2cccc(F)c2)c1=O)NCc1ccc2c(c1)OCO2`, the “activity change, negative = inhibition” value is inactive: -18.4%.

For the compound `CCOc1ccc(CN2CCN(Cc3ccc4c(c3)c3ccccc3n4CC)CC2)cc1`, the “activity change, negative = inhibition” value is inactive: -0.45%.

For `COc1ccc(N2CCN(c3nc4ccc(C(=O)c5ccccc5)cc4n4cnnc34)CC2)cc1`, the “activity change, negative = inhibition” value was inactive: 1.99%.

For `COC(=O)c1cccnc1-n1c(=O)c2cccnc2n(CC(=O)Nc2cccc(C)c2)c1=O`, the “activity change, negative = inhibition” value is inactive: -9.02%.

`COc1cc(C2c3c(oc4ccc(F)cc4c3=O)C(=O)N2Cc2ccc3c(c2)OCO3)ccc1O` (configuration not stated): the “activity change, negative = inhibition” value was inactive: 14.1%.

Take `O=C1CC(c2c(F)cccc2Cl)c2c(ccc3ccccc23)N1` (configuration not stated): the “activity change, negative = inhibition” value is inactive: -9.09%.

For `COc1ccc(C(=O)Nc2ccc3nc4c(c(Nc5ccccc5OC)c3c2)CCCC4)c(OC)c1`, the “activity change, negative = inhibition” value was inactive: -13%.

These data come from PubChem BioAssay AID1963576 (National Center for Advancing Translational Sciences (NCATS), 2024).
